Experimental data reported in PubChem BioAssay AID624173 (National Center for Advancing Translational Sciences (NCATS), 2012).
In all, about 410,000 compounds went through this assay and about 490 (0.12%) were called active. This list was built around the results that the source calls inconclusive (neither active nor inactive); the mix of calls is not that of the screen. Calls follow the shape of the dose curve; as a rule, active = well fitted inhibition curve with a large enough effect; inconclusive = small, poorly fitted or top-dose-only effect; inactive = flat fitted curve, though single readings scatter. Where the call is inconclusive, the potency comes from a doubtful curve fit.
% is scaled to controls: 0 for no effect and ±100 for the full control effect; potency is read from the fitted curve at half-maximal effect; tags tell the direction and shape of the fitted curve.
Also: nearly all actives have a fitted effect of over 50% in size.

Each molecule was assayed against pyruvate kinase (Trypanosoma brucei) (UniProt Q57TT1) (assay: qHTS of Trypanosoma Brucei Inhibitors). Conditions: TbPYK enzyme, Kinase-Glo Plus ATP luminescence, 45 min; series mostly up to 76.8 µM.
Source text: Members of the Trypanosomatidae family of parasitic protozoans cause a spectrum of diseases throughout the tropical and subtropical world. Sleeping sickness, caused by two subspecies of Trypanosoma brucei, is endemic to areas of sub-Saharan Africa, while Chagas' disease, a manifestation of Trypanosoma cruzi infection, is prevalent throughout Central and South America. In addition, many species of Leishmania are responsible for a range of cutaneous and visceral diseases, causing ulcers, destructive lesions and kalaazar, a lethal infection of the viscera. These diseases cause severe public health and economic burdens on populations that are often already caught in a tragic cycle of poverty, poor nutrition and disease. Collectively, parasites of the trypanosomatid family infect 30 million people worldwide (~500 million live in endemic areas), and account for ~130K deaths annually. Existing treatments have developed little in the past 50 years, and suffer from toxicity, poor efficacy and resistance; the goal of this project is to develop lead drugs that will be suitable for entry into pre-clinical trials.
Glycolysis in axenically cultured T. cruzi, representing the intracellular pathogenic stage, is also essential for these parasites. {Engel, 1987} This project aims to discover and optimize selective inhibitors of the glycolytic enzyme pyruvate kinase (PYK) from Trypanosoma brucei, the parasite that causes sleeping sickness. […] Trypanosomatid PYKs show significant differences from their human counterparts including only 47-50% sequence identity and different allosteric and activation properties.{Callens, 1992} To this end, a qHTS was done against the MLSMR to discover inhibitors.
NIH Molecular Libraries Probe Production Network [MLPCN]
NIH Chemical Genomics Center [NCGC]
PI Name: Malcolm Walkinshaw, University of Edinburgh
2 uL of TbPYK/substrate buffer (columns 1-3, 5-48) are dispensed into Greiner white solid bottom 1536-well assay plates; column 4 receives only TEA buffer as 0x TbPYK controls. Compounds are then transferred via Kalypsys pin tool equipped with 1536-pin array (10 nL slotted pins, V&P Scientific, San Diego, CA). Following addition of compound, 2 uL of ADP (130 uM final concentration, all columns) is added to initiate the reaction. The plates are then incubated at room temperature for 45 minutes. Kinase-Glo Plus reagent is added (3 uL) and plates incubated for 10 minutes, before being transferred to a ViewLux high-throughput CCD imager (PerkinElmer) wherein single end-point measurements of luminescence are acquired using a clear filter. All reagents are diluted in an assay buffer consisting of 50 mM TEA (pH 7.2), 100 mM KCl, 10 mM MgCl2, 0.05% BSA and 0.01% Tween-20.
All screening operations will be performed on a fully integrated robotic system (Kalypsys, San Diego, CA) containing one RX-130 and two RX-90 anthropomorphic robotic arms (Staeubli, Duncan, SC). Library plates will be screened starting from the lowest and proceeding to the highest concentration. Vehicle-only plates, with DMSO being pin-transferred to columns 5-48, will be inserted uniformly at the beginning and the end of each library in order to monitor and record any shifts in the background, which can be affected by reagent dispensers or loss in enzyme activity over time. Screening data will be corrected, normalized, and concentration-effect relationships will be derived by using publicly-available curve fitting algorithms developed in-house (http://ncgc.nih.gov/pub/openhts).
In the case of `O=C(c1csnn1)N1CCC2(CC1)CN(c1ccncc1)C2`, the Potency is reported as “inactive”.
With `CN1CCN(C(=O)CC2(CC(=O)O)CCCC2)CC1` the Potency was “inactive”.
In the case of `O=C(Nc1cccc2cccnc12)c1csc([C@@H]2O[C@H](CO)[C@H](O)[C@H](O)[C@H]2O)n1`, the Potency is reported as “inactive”.
In the case of `CCOC(=O)CSc1nc2ccc(NC(=O)c3ccc(Cl)cc3)cc2s1`, the Potency is reported as inconclusive: 14.1 µM [inhibitor, partial curve, poor fit].
`O=C(CSc1nc2ccccc2n1CCc1ccccc1)NC1CCS(=O)(=O)C1` (configuration not stated) was tested, and the Potency was inconclusive: 14.1 µM [inhibitor, partial curve].
For `Cc1cc2c(cc1S(=O)(=O)Nc1ccc(C(C)C)cc1)OCCN2C`, the Potency was “inactive”.
For `S=c1[nH]nc(C2CCCCC2)n1/N=C/c1ccc(Br)cc1`, the Potency was inconclusive: 7.94 µM [inhibitor, partial curve, poor fit].
For `Cc1ccccc1-n1c(-c2cccnc2)n[nH]c1=S`, the Potency was inconclusive: 31.6 µM [inhibitor, partial curve, poor fit].
`Cn1cnnc1SCC(=O)Nc1ccc(C#N)cc1` was tested, and the Potency was “inactive”.
For `COc1cc(Cl)ccc1NC(=O)COc1ccccc1C(=O)N1CCN(c2ccc(O)cc2)CC1`, the Potency was inconclusive: 14.1 µM [inhibitor, partial curve].
For `Cc1cc(C)c2nc(N(Cc3cccnc3)C(=O)c3cccs3)sc2c1`, the activity, negative = inhibition was inactive: -1.19% [at 15.4 µM].
In the case of `Cc1ccccc1C(=O)NNC(=O)Cc1ccccc1`, the Potency is reported as inconclusive: 15.8 µM [inhibitor, partial curve].
With `COC(=O)c1ccc2nc(-c3ccco3)c(Cc3ccccc3)n2c1` the Potency was inconclusive: 17.8 µM [inhibitor, partial curve, poor fit].
`O=C1C=CC(=O)N1Cc1ccccc1` was tested, and the Potency was inconclusive: 20 µM [inhibitor, partial curve].
In the case of `CC(Sc1nc(N)c2c3c(sc2n1)CSC(C)(C)C3)C(=O)Nc1ccccc1` (configuration not stated), the Potency is reported as inconclusive: 28.2 µM [inhibitor, single point].
With `CCCCNC(=O)C1CCC(CNS(=O)(=O)c2ccc(Cl)cc2)CC1` (configuration not stated) the Potency was “inactive”.
For `CC(=O)OCC(=O)Nc1ccc([N+](=O)[O-])cc1Cl`, the Potency was “inactive”.
With `Cn1cc(CN2CCC(n3nccc3NC(=O)CCc3ccccc3)CC2)cn1` the Potency was “inactive”.
In the case of `CCN1C(=O)/C(=C/C=C2\C=CN(CC)c3ccccc32)SC1=S`, the Potency is reported as inconclusive: 8.91 µM [inhibitor, partial curve].
`C/C=C\C=C/C(=O)Nc1cccc(C2=NOC3(C2)C[C@H](C(N)=O)N(C(=O)Cc2ccc([N+](=O)[O-])cc2)C3)c1` (some centres not stated) was tested, and the Potency was inconclusive: 17.8 µM [inhibitor, partial curve].
For `CCC(=O)Nc1ccc(Cl)c(NC(=O)c2ccccc2OC)c1`, the Potency was “inactive”.
In the case of `Cc1cccc(NC(=O)c2sc3nc(N4CCOCC4)c4c(c3c2N)CC(C)(C)OC4)c1`, the Potency is reported as inconclusive: 11.2 µM [inhibitor, partial curve].
With `CCOc1ccc(C(c2c(O)nc(SC)n(C)c2=O)c2c(O)nc(SC)n(C)c2=O)cc1` the Potency was inconclusive: 31.6 µM [inhibitor, single point].
For `CC(C)(C)C(=O)/C=C(\N)c1ccncc1`, the Potency was “inactive”.
`CN(CCOc1ccc(C=C2C(=O)NC(=O)NC2=O)cc1)c1ccccn1` was tested, and the Potency was inconclusive: 35.5 µM [inhibitor, single point].
For `CCn1nnnc1NCc1ccc(N2CCCC2)cc1`, the Potency was inconclusive: 50.1 µM [inhibitor, single point].
With `Cc1ccc([C@@H]2C3COCC=C3C(C#N)=C(N)C2(C#N)C#N)o1` (some centres not stated) the Potency was inconclusive: 14.1 µM [inhibitor, partial curve, poor fit].
`C=CCn1c(-c2ccc(OC)c(OC)c2)n[nH]c1=S` was tested, and the Potency was inconclusive: 15.8 µM [inhibitor, partial curve, poor fit].
With `Cc1cc(/C=C2\SC(=S)NC2=O)c(C)n1-c1cccc(O)c1` the Potency was “inactive”.
For `CS(=O)(=O)N1CCN(CC2CC3C=CC2C3)CC1` (configuration not stated), the Potency was inconclusive: 50.1 µM [inhibitor, single point].
`CCN(CC)S(=O)(=O)c1ccc(C2=NOC3(C2)N(C)c2ccccc2C3(C)C)cc1` (configuration not stated) was tested, and the Potency was “inactive”.
`COc1ccc(NC(=O)COC(=O)c2ccc(S(=O)(=O)N3CCCCCC3)cc2)c(OC)c1` was tested, and the Potency was “inactive”.
`COc1ccc(Br)cc1CNC(=O)c1ccc(-n2c(C)cc3c2CCC(C)C3)cc1` (configuration not stated) was tested, and the Potency was “inactive”.
`COc1ccc(Nc2cc(C(=O)NCCCN(C)C3CCCCC3)c3ccccc3n2)cc1` was tested, and the Potency was “inactive”.
`Cc1cc(C)c(S(=O)(=O)N2CCN(C(=O)N3CCOCC3)CC2)c(C)c1` was tested, and the Potency was “inactive”.
With `Cc1ccc(CN(Cc2cccnc2)C(=O)CN2C(=O)COc3ccccc32)o1` the Potency was inconclusive: 50.1 µM [inhibitor, single point].
In the case of `CC(=O)c1cn(CC(=O)Nc2c(C)cccc2C)c2ccccc12`, the Potency is reported as “inactive”.
For `COc1cc(OC)cc(-c2cc3ccc(OC)cc3cn2)c1`, the Potency was inconclusive: 35.5 µM [inhibitor, partial curve, poor fit].
With `CCOC(=O)c1nnsc1Nc1ccc(C)c(C)c1` the Potency was inconclusive: 20 µM [inhibitor, partial curve, poor fit].
In the case of `CCOC(=O)N1CCN(c2c(NCCCN(CC)CC)c(=O)c2=O)CC1`, the Potency is reported as “inactive”.
`C=CCn1c(C)cc(C2=NNC(=Nc3ccc(C)cc3)SC2)c1C` was tested, and the Potency was inconclusive: 35.5 µM [inhibitor, single point].
For `Cc1ccc(/C=C/C(=O)Nc2ccc([N+](=O)[O-])cc2)o1`, the Potency was inconclusive: 0.794 µM [inhibitor, full curve, poor fit].
With `COc1ccc(-c2csc(C3=C(O)CN(Cc4ccc(Cl)cc4)C3=N)n2)cc1OC` the Potency was “inactive”.
In the case of `COC(=O)c1c(-c2ccc(C(C)(C)C)cc2)csc1NC(=O)C1C2CCC(O2)C1C(=O)O` (configuration not stated), the Potency is reported as inconclusive: 15.8 µM [inhibitor, partial curve, poor fit].
For `COc1ccccc1-n1c(CCn2nc(C)c(Br)c2C)n[nH]c1=S`, the Potency was active: 3.55 µM.
For `COC(=O)Cc1ccc(NC(=S)NCc2ccc(S(N)(=O)=O)cc2)cc1`, the Potency was inconclusive: 35.5 µM [inhibitor, single point].
`COCCNc1nc(-c2cc(C)n(CCc3ccc(OC)cc3)c2C)cs1` was tested, and the Potency was inconclusive: 39.8 µM [inhibitor, single point].
`COc1ccc(CN(CCC#N)C(=S)NC(=O)c2ccccc2)cc1` was tested, and the Potency was inconclusive: 28.2 µM [inhibitor, partial curve, poor fit].
In the case of `CCC(=O)c1ccc(OCC(=O)NCCc2ccccn2)cc1`, the Potency is reported as “inactive”.
With `Cc1cc(C)cc(NC(=O)COC(=O)CCc2ccc(S(=O)(=O)N3CCOCC3)cc2)c1` the Potency was “inactive”.
In the case of `Brc1ccc(-c2csc(N3CCOCC3)n2)cc1`, the Potency is reported as inconclusive: 28.2 µM [inhibitor, single point].
With `CCOC(=O)C(C)/C(C)=N\Nc1ccc([N+](=O)[O-])cc1[N+](=O)[O-]` (configuration not stated) the Potency was “inactive”.
`CC(=O)Nc1cccc(NC(=O)CSc2nccn2C2CCCC2)c1` was tested, and the Potency was “inactive”.
With `COC(=O)c1c(-c2cccs2)csc1NC(=O)c1cccnc1` the Potency was “inactive”.
In the case of `Cc1ccc(CSCC(=O)N2CCOCC2)cc1`, the Potency is reported as inconclusive: 28.2 µM [inhibitor, single point].
In the case of `O=C(c1cccnc1)N(Cc1ccccc1)C(c1ccccc1)c1nc2ccccc2[nH]1` (configuration not stated), the Potency is reported as “inactive”.
With `CC(C)(C)c1cnnn1-c1ccc(NC(=O)c2ccc3c(c2)OCO3)cc1` the Potency was “inactive”.
`Clc1ccc(CSc2nccn2Cc2ccccc2)cc1` was tested, and the Potency was inconclusive: 6.31 µM [inhibitor, partial curve].
With `Oc1ccc(/C=N/NC(=S)Nc2cccnc2)c(O)c1O` the Potency was inconclusive: 14.1 µM [inhibitor, partial curve, poor fit].
With `CC(C(=O)NCc1ccc(Cl)cc1)n1ccc2cc(S(=O)(=O)N3CCCC3)ccc21` (configuration not stated) the Potency was “inactive”.
With `CCN(CC)S(=O)(=O)c1cccc(-c2n[nH]c(=S)n2C)c1` the Potency was inconclusive: 17.8 µM [inhibitor, partial curve, poor fit].
For `Cc1ccc(-c2cc(C(=O)NCCCn3ccnc3)c3cc(Br)ccc3n2)o1`, the Potency was inconclusive: 20 µM [inhibitor, partial curve, poor fit].
In the case of `S=c1[nH]nc(CN2CCCCC2)n1Cc1ccccc1`, the Potency is reported as inconclusive: 14.1 µM [inhibitor, partial curve].
For `COc1cccc(NC(=O)c2sc3nc(N4CCOCC4)c4c(c3c2N)CCCC4)c1`, the Potency was inconclusive: 8.91 µM [inhibitor, partial curve, poor fit].
`C(=C\c1ccccc1)/CN1CCN(C(c2ccccc2)c2nnnn2C2CCCCC2)CC1` (configuration not stated) was tested, and the Potency was “inactive”.
In the case of `CC(C)c1cnc2c(c1SCC(=O)Nc1cccc([N+](=O)[O-])c1)c(=O)n(C)c(=O)n2C`, the Potency is reported as inconclusive: 39.8 µM [inhibitor, single point].
For `O=c1c2ccccc2ccc2ccc(P(=O)(O)O)cc12`, the Potency was inconclusive: 25.1 µM [inhibitor, single point].
In the case of `O=C(Nc1ccc(S(=O)(=O)N2CCOCC2)cc1)c1ccc2ncsc2c1`, the Potency is reported as inconclusive: 15.8 µM [inhibitor, partial curve, poor fit].
For `CCCCN(Cc1cc2ccccc2[nH]c1=O)C(=O)c1cccc(Cl)c1`, the Potency was “inactive”.
For `Cc1ccc(C(=O)NCC(c2ccco2)S(=O)(=O)c2cccs2)cc1C` (configuration not stated), the Potency was “inactive”.
For `Cc1cccc(C(c2sc3nc(-c4ccco4)nn3c2O)N2CCN(c3ccccc3F)CC2)c1` (configuration not stated), the Potency was “inactive”.
In the case of `O=C1NC(=O)C(=Cc2ccccc2OCCOc2ccc([N+](=O)[O-])cc2)C(=O)N1`, the Potency is reported as inconclusive: 56.2 µM [inhibitor, partial curve, poor fit].
